The values below come from the supplement of paper PMC12217912.

The list shows a part of the results. Sequences were assembled here from the parent chain. Values near 0.05 are background.

The labels stand for the following.
B1: TEV protease; numbered along this chain (parent)
chain: MGESLFKGPRDYNPISSSICHLTNESDGHTTSLYGIGFGPFIITNKHLFRRNNGTLVVQSLHGVFKVKDTTTLQQHLVDGRDMIIIRMPKDFPPFPQKLKFREPQREERICLVTTNFQTKSMSSMVSDTSCTFPSGDGIFWKHWIQTKDGQCGSPLVSTRDGFIVGIHSASNFTNTNNYFTSVPKNFMELLTNQEAQQWVSGWRLNADSVLWGGHKVFMVKPEEPFQPVKEATQL
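Further: Bxb1 expression induced with 0.2% (w/v) L-rhamnose at OD600 near 0.5, cultures sampled hourly, flipped fraction per protease–substrate barcode pair counted by paired-end Illumina sequencing.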

The variants in this assay derive from B1. The assay can be described thus: raw area under fraction-flipped curve 0-4 h after induction (AUC4h, not background-subtracted), DNA-recorder readout of cleavage of the substrate (dimensionless); higher = more cleavage of the substrate by the protease variant. The conditions noted are these: temperature: 34 °C; time window: 0-4 h after rhamnose induction.
In the case of MGESLFKGPRDYNPISSSICHLTNESDGHTTSLYGIGFGPFIITNKHLFRRNNGTLVVQSLHGVFKVKDTTTLQQHLVDGRDMIIIRMPKDFPPFPQKLKFREPQREERICLVTTNFQTKSMSSMVSDTSCTFPSGDGIFWKHWIQTKDGQCGSPLVSTRDGFFVGIHSASNFTNTNNYFTSVPKNFMELLTNQEAQQWVSGWRLNADSVLWGGHKVFMVKPEEPFQPVKEATQL [I164F], the “area with substrate ENLYFQH” value worked out at 0.05, the “area with substrate ENLYFQL” value is 0.0526, the “area with substrate ENLYFQR” value is 0.0397 and the “area with substrate ENLYFQS” value is 0.0594. For the same variant, the “area with substrate ENLYFQT” value turned out to be 0.0573.
MGESLFKGPRDYNPISSSICHLTNESDGHTTSLYGIGFGPFIITNKHLFRRNNGTLVVQSLHGVFKVKDTTTLQQHLVDGRDMIIIRMPKDFPPFPQKLKFREPQREERICLVTTNFQTKSMSSMVSDTSCTFPSGDGIFWKHWIQTKDGQHGSPLVSTRDGFIVGIHSASNFTNTNNYFTSVPKNFMELLTNQEAQQWVSGWRLNADSVLWGGHKVFMVKPEEPFQPVKEATQL [C152H]: the “area with substrate ENLYFQG” value was found to be 0.0528, the “area with substrate ENLYFQL” value was determined as 0.0553, the “area with substrate ENLYFQQ” value is 0.0346 and the “area with substrate ENLYFQR” value stood at 0.0608. Moreover, the “area with substrate ENLYFQS” value was found to be 0.0604, the “area with substrate ENLYFQV” value was determined as 0.0662, the “area with substrate ENLYFQW” value came out at 0.0572 and the “area with substrate ENLYFQY” value turned out to be 0.0761.
On to MGESLFKGPRDYNPISSSICHLTNESDGHTTSLYGIGFGPFIITNKHLFRRNNGTLVVQSLHGVFKVKDTTTLQQHLVDGRDMIIIRMPKDFPPFPQKLKFREPQREERICLVTTNFQTKTMSSMVSDTSCTFPSGDGIFWKHWIQTKDGQCGSPLVSTRDGFIVGIHSASNFTNTNNYFTSVPKNFMELLTNQEAQQWVSGWRLNADSVLWGGHKVFMVKPEEPFQPVKEATQL [S121T], for which the “area with substrate ENLYFQH” value was found to be 0.0749, the “area with substrate ENLYFQK” value came out at 0.0375, the “area with substrate ENLYFQM” value stood at 0.0856 and the “area with substrate ENLYFQP” value is 0.048. The “area with substrate ENLYFQS” value was 0.125 and the “area with substrate ENLYFQT” value stood at 0.0522.
Take MGYSLFKGPRDYNPISSSICHLTNESDGHTTSLYGIGFGPFIITNKHLFRRNNGTLVVQSLHGVFKVKDTTTLQQHLVDGRDMIIIRMPKDFPPFPQKLKFREPQREERICLVTTNFQTKSMSSMVSDTSCTFPSGDGIFWKHWIQTKDGQCGSPLVSTRDGFIVGIHSASNFTNTNNYFTSVPKNFMELLTNQEAQQWVSGWRLNADSVLWGGHKVFMVKPEEPFQPVKEATQL [E3Y]: the “area with substrate ENLYFQH” value stood at 0.0771, the “area with substrate ENLYFQM” value was determined as 0.109, the “area with substrate ENLYFQP” value worked out at 0.0439 and the “area with substrate ENLYFQR” value came out at 0.0455. Besides, the “area with substrate ENLYFQS” value was determined as 0.132 and the “area with substrate ENLYFQY” value worked out at 0.0979.
MGESLFKGPRDYNPISSSICHLTNESDGHTTSLYGIGFGPFIITNKHLFRRNNGTLVVQSLHGVFKVKDTTTLQQHLVDGRDMIIIRMPKDFPPFPQKLKFREPQREERICLVTTNFQTKSMSSMVSDTSCTFPSGDGIFWKHWIQTKDGQCGSPLVSTRDGFIVGIHSASNFTNTNNYFTSVPKNFMELLTSQEAQQWVSGWRLNADSVLWGGHKVFMVKPEEPFQPVKEATQL [N193S]: the “area with substrate ENLYFQG” value came to 0.0844, the “area with substrate ENLYFQI” value came to 0.0483, the “area with substrate ENLYFQM” value is 0.0955 and the “area with substrate ENLYFQP” value is 0.0698. Besides, the “area with substrate ENLYFQS” value was 0.11, the “area with substrate ENLYFQT” value came to 0.0637 and the “area with substrate ENLYFQY” value came out at 0.0705.
As to MGESLFKGPRDYNPISSSICHLTNESDGHTTSLYGIGFGPFIITNKHLFRRNNGTLVVQSLHGVFKVKDTTTLQQHLVDGRDMIIIRMPKDFPPFPQKLKFREPQREERICLVTTNFQTKSMSSMVSDTSCTFPSGDGIFWKHWIQTKDGQCGSPLVSTRDGFIVGIHSASNFTNTNNYFTSVPKNFMELLTNQEAQQWVSGWRLNMDSVLWGGHKVFMVKPEEPFQPVKEATQL [A207M], the “area with substrate ENLYFQI” value turned out to be 0.0094, the “area with substrate ENLYFQS” value came to 0.102 and the “area with substrate ENLYFQW” value was found to be 0.0613.
For the variant MGESLFKGPRDYNPISSSICHLTNESDGHTTSLYGIGFGPFIITNKHLFRRNNGTLVVQSLHGVFKVKDTTTLQQHLVDGRDMIIIRMPKDFPPFPQKLKFREPQREERICLVTTNFQFKSMSSMVSDTSCTFPSGDGIFWKHWIQTKDGQCGSPLVSTRDGFIVGIHSASNFTNTNNYFTSVPKNFMELLTNQEAQQWVSGWRLNADSVLWGGHKVFMVKPEEPFQPVKEATQL [T119F], the “area with substrate ENLYFQF” value is 0.0716, the “area with substrate ENLYFQG” value came out at 0.028, the “area with substrate ENLYFQK” value was 0.0582 and the “area with substrate ENLYFQL” value came to 0.0767. The “area with substrate ENLYFQM” value turned out to be 0.0965, the “area with substrate ENLYFQR” value was found to be 0.0659 and the “area with substrate ENLYFQS” value stood at 0.106.
Consider MGESLFKIPRDYNPISSSICHLTNESDGHTTSLYGIGFGPFIITNKHLFRRNNGTLVVQSLHGVFKVKDTTTLQQHLVDGRDMIIIRMPKDFPPFPQKLKFREPQREERICLVTTNFQTKSMSSMVSDTSCTFPSGDGIFWKHWIQTKDGQCGSPLVSTRDGFIVGIHSASNFTNTNNYFTSVPKNFMELLTNQEAQQWVSGWRLNADSVLWGGHKVFMVKPEEPFQPVKEATQL [G8I], for which the “area with substrate ENLYFQG” value stood at 0.0911, the “area with substrate ENLYFQM” value was found to be 0.0518, the “area with substrate ENLYFQN” value is 0.0689 and the “area with substrate ENLYFQR” value was determined as 0.0515. The “area with substrate ENLYFQS” value amounted to 0.094.
MGESLFKCPRDYNPISSSICHLTNESDGHTTSLYGIGFGPFIITNKHLFRRNNGTLVVQSLHGVFKVKDTTTLQQHLVDGRDMIIIRMPKDFPPFPQKLKFREPQREERICLVTTNFQTKSMSSMVSDTSCTFPSGDGIFWKHWIQTKDGQCGSPLVSTRDGFIVGIHSASNFTNTNNYFTSVPKNFMELLTNQEAQQWVSGWRLNADSVLWGGHKVFMVKPEEPFQPVKEATQL [G8C]: the “area with substrate ENLYFQI” value is 0.0503, the “area with substrate ENLYFQL” value is 0.0671, the “area with substrate ENLYFQM” value is 0.0909 and the “area with substrate ENLYFQR” value was determined as 0.0499. The “area with substrate ENLYFQS” value came out at 0.0983 and the “area with substrate ENLYFQT” value turned out to be 0.055.
With MGESLFKNPRDYNPISSSICHLTNESDGHTTSLYGIGFGPFIITNKHLFRRNNGTLVVQSLHGVFKVKDTTTLQQHLVDGRDMIIIRMPKDFPPFPQKLKFREPQREERICLVTTNFQTKSMSSMVSDTSCTFPSGDGIFWKHWIQTKDGQCGSPLVSTRDGFIVGIHSASNFTNTNNYFTSVPKNFMELLTNQEAQQWVSGWRLNADSVLWGGHKVFMVKPEEPFQPVKEATQL [G8N], the “area with substrate ENLYFQH” value worked out at 0.0773, the “area with substrate ENLYFQM” value came out at 0.123, the “area with substrate ENLYFQR” value turned out to be 0.0485 and the “area with substrate ENLYFQS” value is 0.112. Further, the “area with substrate ENLYFQY” value was found to be 0.0924.
For MGESLFKGPRDYNPISSSICHLTNESDGHTTSLYGIGFGPFIITNKHLFRRNNGTLVVQSLHGVFKVKDTTTLQQHLVDGRDMIIIRMPKDFPPMPQKLKFREPQREERICLVTTNFQTKSMSSMVSDTSCTFPSGDGIFWKHWIQTKDGQCGSPLVSTRDGFIVGIHSASNFTNTNNYFTSVPKNFMELLTNQEAQQWVSGWRLNADSVLWGGHKVFMVKPEEPFQPVKEATQL [F95M], the “area with substrate ENLYFQG” value was found to be 0.102, the “area with substrate ENLYFQH” value was determined as 0.0595 and the “area with substrate ENLYFQS” value came to 0.096.
Consider MGESLFKGPRDYNPISSSICHLTNESDGHTTSLYGIGFGPFIITNKHLFRRNNGTLVPQSLHGVFKVKDTTTLQQHLVDGRDMIIIRMPKDFPPFPQKLKFREPQREERICLVTTNFQTKSMSSMVSDTSCTFPSGDGIFWKHWIQTKDGQCGSPLVSTRDGFIVGIHSASNFTNTNNYFTSVPKNFMELLTNQEAQQWVSGWRLNADSVLWGGHKVFMVKPEEPFQPVKEATQL [V58P], for which the “area with substrate ENLYFQI” value turned out to be 0.0487, the “area with substrate ENLYFQL” value was determined as 0.0272, the “area with substrate ENLYFQM” value is 0.0273 and the “area with substrate ENLYFQS” value came out at 0.0258. Besides, the “area with substrate ENLYFQT” value stood at 0.0337.
Take MGESLFKGPRDYNPISSSICHLTNESDGHTTSLYGIGFGPFIITNKHLFRRNNGTLVVQSLHGVFKVKDTTTLQQHLVDGRDMIIIRMPKDFPPFPQKLKFREPQREERICLVTTNFQTKSMSSMVSDTSCTFPSGDHIFWKHWIQTKDGQCGSPLVSTRDGFIVGIHSASNFTNTNNYFTSVPKNFMELLTNQEAQQWVSGWRLNADSVLWGGHKVFMVKPEEPFQPVKEATQL [G138H]: the “area with substrate ENLYFQH” value came to 0.0752, the “area with substrate ENLYFQK” value came out at 0.0558, the “area with substrate ENLYFQL” value amounted to 0.0678 and the “area with substrate ENLYFQM” value turned out to be 0.0728. Further, the “area with substrate ENLYFQS” value stood at 0.0943.
